Data from article PMC4336329 (PLoS ONE, 2015).
Among all 310,000 compounds or so, about 2,200 (0.71%) showed an effect of 50% or more. Effects have a minus sign here. Some of the results follow.

molecular target: human ether-à-go-go-related gene (hERG) potassium channel (human, UniProt Q12809); test: primary screen, population patch clamp on CHO cells stably expressing hERG
Sequence (Q12809 whole entry, looked up): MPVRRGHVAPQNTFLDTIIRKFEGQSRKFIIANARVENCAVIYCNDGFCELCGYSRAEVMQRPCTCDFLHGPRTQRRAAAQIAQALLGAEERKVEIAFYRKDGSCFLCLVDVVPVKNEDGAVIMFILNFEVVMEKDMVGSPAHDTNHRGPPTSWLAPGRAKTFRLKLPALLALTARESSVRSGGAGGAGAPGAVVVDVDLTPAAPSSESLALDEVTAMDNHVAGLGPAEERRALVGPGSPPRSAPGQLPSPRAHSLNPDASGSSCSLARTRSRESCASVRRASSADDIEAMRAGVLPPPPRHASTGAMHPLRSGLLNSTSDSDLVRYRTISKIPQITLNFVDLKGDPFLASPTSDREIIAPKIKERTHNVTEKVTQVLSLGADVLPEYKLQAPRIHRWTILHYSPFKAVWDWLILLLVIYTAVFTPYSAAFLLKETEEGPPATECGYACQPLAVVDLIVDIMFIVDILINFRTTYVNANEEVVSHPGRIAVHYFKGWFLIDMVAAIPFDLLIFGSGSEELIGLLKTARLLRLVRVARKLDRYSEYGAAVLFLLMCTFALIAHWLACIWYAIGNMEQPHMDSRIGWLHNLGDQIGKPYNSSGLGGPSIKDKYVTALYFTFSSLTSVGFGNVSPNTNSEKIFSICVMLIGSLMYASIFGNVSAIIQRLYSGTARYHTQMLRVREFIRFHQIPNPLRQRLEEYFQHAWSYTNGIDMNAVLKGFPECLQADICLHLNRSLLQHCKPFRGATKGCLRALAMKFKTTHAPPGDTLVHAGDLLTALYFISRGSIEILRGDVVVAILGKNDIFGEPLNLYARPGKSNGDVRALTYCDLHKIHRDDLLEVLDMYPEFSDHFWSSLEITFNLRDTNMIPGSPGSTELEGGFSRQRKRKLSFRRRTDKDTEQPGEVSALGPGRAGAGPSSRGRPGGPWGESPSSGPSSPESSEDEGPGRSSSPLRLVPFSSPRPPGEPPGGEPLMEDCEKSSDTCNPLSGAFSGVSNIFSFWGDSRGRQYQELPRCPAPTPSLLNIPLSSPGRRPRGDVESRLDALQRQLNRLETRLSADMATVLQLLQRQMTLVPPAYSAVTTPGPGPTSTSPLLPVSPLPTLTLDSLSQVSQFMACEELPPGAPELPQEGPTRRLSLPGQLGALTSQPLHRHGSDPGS

Row | SMILES | hERG current change (%, negative = inhibition) at 1uM [%]
1 | Cc1ccc(C2CC(=O)c3cnn(-c4nc(C)cc(C)n4)c3C2)cc1 (stereo not drawn) | 0.815
2 | O=C(CSc1ccc2nnc(-c3ccncc3)n2n1)NCc1ccco1 | -7.28
3 | CCCc1nc(SCC(=O)Nc2ccc(N3CCOCC3)cc2)c2ccccc2n1 | -7.38
4 | Cc1cc(CCC(=O)O)c(C)cc1CCC(=O)O | 3.69
5 | CCC(CO)n1c(SCc2cc(=O)oc3cc(C)ccc23)nc2ccccc2c1=O (stereo not drawn) | 14.1
6 | O=c1[nH]c2ccsc2c(=O)n1CCO | 11.1
7 | Cc1nnc(SCc2nnc(-c3cccs3)o2)n1C | 15
8 | CC1CCCCN1Cc1cccnc1.O=C(O)C(=O)O (stereo not drawn) | 13.8
9 | COc1ccc(Cl)cc1NC(=O)NCc1ccco1 | 1.04
10 | CN(C(=O)c1ccc(N2CCOCC2)c([N+](=O)[O-])c1)C1CCCCC1 | 7.37
11 | COc1ccc(/C=N/NC(=O)Cc2csc(Nc3cccc(C(F)(F)F)c3)n2)c(OC)c1 | 8.25
12 | COc1ccc(C(=O)Nc2ccc(C(F)(F)F)n(C)c2=O)cc1 | 2.71
13 | C#CCCCCCCC#CCN(C)C.CC(=O)O | 16.3
14 | Cc1c(-c2ccncc2)oc2ccc(Br)cc2c1=O | 8.33
15 | Cc1noc(C)c1COC(=O)Cc1ccc(Cl)cc1 | 4.37
16 | Cc1cccc(NC(=O)CN2CCN(C(=O)C(C)Oc3ccc(C#N)cc3)CC2)c1C (stereo not drawn) | -54.7
17 | CC(=O)Nc1nc(-c2ccc3c(c2)CCN3S(C)(=O)=O)cs1 | 9.83
18 | Cn1cnnc1SCC(=O)Nc1nc(-c2ccccc2)cs1 | 2.11
19 | CC(C)(C)C(=O)N1CCC[C@@]1(CO)C(=O)O | 11.3
20 | O=C(CSc1nnc(-c2cc(-c3cccs3)nc3ccccc23)o1)NC1CCCCC1 | 10.3
21 | Cc1cc(C(=O)OCC(=O)NCc2ccco2)c(C)o1 | 7.79
22 | CC(=O)N1CC(=O)N(OCc2ccccc2)C1c1ccc(Cl)cc1Cl (stereo not drawn) | 10.8
23 | COc1cccc(/C=C/C(=O)OCC(=O)N2CCN(S(=O)(=O)c3ccc(Cl)cc3)CC2)c1 | 13.7

Row | SMILES | hERG current change (%, negative = inhibition) at 1uM [%]
24 | CCOc1ccc(-c2c(C(=O)N/N=C/c3cccs3)nnn2-c2nonc2N)cc1 | 8.15
25 | CC(C)CNC(=O)c1ccc2c(c1)C(=O)N(C1CCCCC1)C2=O | 8.43
26 | O=C(CSc1ccccn1)N1CCc2ccccc21 | 6.34
27 | COc1ccc(NC(=S)N2CCN(c3ccccc3)CC2)c(OC)c1 | 16.5
28 | CC(=O)c1cn(Cc2ccc(F)cc2)c2ccccc12 | -2.75
29 | COc1ccccc1Nc1ncnc2nc[nH]c12 | 11.2
30 | CC(C)NC(=O)c1onc(CSc2ccc(F)c(F)c2)c1C(=O)NC(C)C | -1.15
31 | Cc1nnc2sc(SCC(=O)N3CCCCC3)nn2c1=O | 11.4
32 | CCN(CC)CCCNC(=O)C1c2ccccc2Oc2ccccc21 | 9.17
33 | CSCCNCc1c(C(=O)N2CCOCC2)nc2c(C)cccn12 | 13.7
34 | CC1(C)CC(=O)/C(=N/Nc2ccc(Cl)cc2)CO1 | 8.09
35 | CC12CN3CC(C)(CN(C1)C3c1ccc(Br)cc1O)C2 (stereo not drawn) | 1.02
36 | CN(CC(=O)Nc1ccccc1Cl)C(=O)C1CCN(C(=O)c2ccc(Cl)cc2)CC1 | -3.89
37 | COc1ccc(S(=O)(=O)N2c3cc(C)ccc3OCC2C(C)(C)C)cc1 (stereo not drawn) | 6.16
38 | Cc1cccc(NC(=O)C2CCCN(C(=O)NCc3ccccc3)C2)c1C (stereo not drawn) | 12.3
39 | Cc1ccsc1/C=N/NC(=O)c1ccccn1 | 5.01
40 | COc1ccccc1C(c1nnnn1C(C)C)N1CCN(C(=O)c2ccco2)CC1 (stereo not drawn) | 11.8
41 | O=C(CSC(=S)N1CCN(c2ccccc2)CC1)Nc1nc(-c2ccccc2)c(-c2ccccc2)o1 | 1.95
42 | Cc1nc2cc(NC(=O)c3ccc([N+](=O)[O-])s3)ccc2s1 | -2.3
43 | O=S(=O)(c1cnccc1N1CCN(/N=C/c2ccc(Br)cc2)CC1)N1CCCCC1 | 13.1
44 | O=C(CN1CCOCC1)Nc1nc(-c2ccccc2Cl)cs1 | -7.94
45 | O=C(NCCCN1CCCC1=O)c1cn(-c2ccccc2)nc1-c1ccccc1 | 1.26
46 | CCN(CC)Cc1c(O)ccc2c(=O)c(-c3ccc(Cl)cc3)coc12 | -10.4

Row | SMILES | hERG current change (%, negative = inhibition) at 1uM [%]
47 | CC(C)CN(CC(C)C)S(=O)(=O)N1CCC(C(=O)NCc2cccs2)CC1 | 1.45
48 | Cc1ccc(C2CC(=O)Nc3sc(C(N)=O)c(N)c32)cc1 (stereo not drawn) | 2.74
49 | CSc1cccc(NC(=O)N2CCN(C)CC2)c1 | -0.755
50 | O=C(NCc1ccco1)c1ccc(Cl)c(S(=O)(=O)N2CCOCC2)c1 | 9.1
51 | Cc1cccc(C)c1NC(=S)N1CCC(c2ccccc2)C1 (stereo not drawn) | 3.18
52 | CC(=O)NCC(=O)NC1(C(=O)NC2CCCC2)CCCCC1 | 10.7
53 | COc1cccc(C(=O)COc2ccc(NC(=O)c3cccs3)cc2)c1 | 13.4
54 | COc1cc2cc(CCCOC(=O)c3ccco3)oc(=O)c2cc1OC | -2.15
55 | Cc1occc1C(=O)NCc1cccc(CNC(=O)c2ccoc2C)c1 | 5.08
56 | Nc1n[nH]c(C2CC2)c1N=Nc1ccc(Cl)cc1 | 8.81
57 | N#Cc1cc(C(=O)c2cc(Br)ccc2O)cn(Cc2ccccc2)c1=O | 11
58 | O=C(c1ccc(-n2c(SCc3cccc(F)c3)nc3ccccc3c2=O)cc1)N1CCOCC1 | -1.5
59 | COc1ccc(N2CCN(C(CNC(=O)c3cccc(Cl)c3)c3cccnc3)CC2)cc1 (stereo not drawn) | -4.06
60 | O=C(Nc1cccc(C(F)(F)F)c1)c1ccc2nc(-c3ccco3)c(-c3ccco3)nc2c1 | 14.1
61 | COc1ccc(-n2nc(C(=O)NCC(=O)NC(C)C)c3ccccc3c2=O)c(OC)c1 | 15.3
62 | CC(=O)Nc1ccc(Oc2ncccn2)c(Cl)c1 | -4.47
63 | CC(C)(C)c1[nH]nc2c1C(Cc1ccccc1)C(C#N)=C(N)O2 (stereo not drawn) | 8.7
64 | CC(C)[C@H](NC(=O)c1ccc(Cl)c([N+](=O)[O-])c1)C(=O)NCc1ccc(Cl)cc1Cl | 17.5
65 | COc1ccc(CNC(=O)C/C(C)=N/NC(=O)Cc2ccc(OC)c(OC)c2)cc1 | 10.4
66 | CCOC(=O)Cc1nn2c(=O)cc(C)nc2s1 | 9.41
67 | COc1ccc(-c2nnc(OCc3nc4ccccc4n3C)c3ccccc23)cc1 | -12.9
68 | COCCN(C(=O)COC(=O)c1cc2ccccc2cc1OC)c1c(N)n(Cc2ccccc2)c(=O)[nH]c1=O | 4.64
69 | CC(NCc1nc2ccccc2n1C)C12CC3CC(CC(C3)C1)C2 (stereo not drawn) | 16.3

Row | SMILES | hERG current change (%, negative = inhibition) at 1uM [%]
70 | Cc1cc(N2CCC(C)CC2)nc2ccc(N3C(=O)CCC3=O)cc12 | 9.64
71 | Cc1ccc(NC(=O)[C@H](Cc2ccccc2)NC(=O)[C@@H]2Cc3ccccc3CN2)c(C)c1 | 11.1
72 | O=C(Nc1ccc(Br)cc1)Nc1ccccc1F | 4.58
73 | O=C(NC1CCCC1)C(c1ccco1)N(C(=O)c1ccco1)c1ccccc1 (stereo not drawn) | 3.05
74 | Cn1c(SCC(=O)Nc2cc(S(=O)(=O)N3CCOCC3)ccc2N2CCOCC2)nnc1-c1ccncc1 | 12.1
75 | Cc1cc(C)n2nc(C(=O)OCC(=O)N(C)Cc3ccccc3)nc2n1 | 6.47
76 | O=C(c1cc([N+](=O)[O-])ccc1N1CCCCC1)N1CCCCC1 | -6.51
77 | COc1ccc(S(=O)(=O)NC(C)C(=O)NCc2cccnc2)cc1OC (stereo not drawn) | 11.7
78 | COc1ccccc1-n1c(CNC(=O)c2cccs2)n[nH]c1=S | 6.11
79 | CCN(CC)c1ccc(/C=N/NC(=O)C(O)c2ccccc2)cc1 (stereo not drawn) | -1.26
80 | COC(=O)Nc1nc2ccc(SC(C)C)cc2[nH]1 | 10.1
81 | CCOC(=O)C1C(=O)NC2(C)CC1c1cc(OC)ccc1O2 (stereo not drawn) | 14.1
82 | COc1ccc(C)cc1S(=O)(=O)N(C)CC(N)=O | 8.74
83 | CCn1c(=O)n(CC(=O)NCc2ccccc2OC)c(=O)c2ccccc21 | 8.78
84 | COc1ccccc1CNC(=O)c1ccc(-c2ccccc2Cl)o1 | 14
85 | Cc1cc(C)n(CC(=O)N/N=C/c2ccc(C)o2)n1 | -0.565
86 | COc1ccc(NC(=O)c2ccc3ccccc3c2)cc1 | 16.4
87 | CCN(CC)C(=O)c1ccc(NC(=O)c2cccc(S(=O)(=O)N3CCN(Cc4ccccc4)CC3)c2)cc1 | -10.7
88 | C=CCN1CC(c2nc3ccccc3n2Cc2ccccc2)CC1=O (stereo not drawn) | 2.6
89 | Cc1ccc(-n2nc3c(c2NC(=O)c2c(F)cccc2Cl)CS(=O)(=O)C3)cc1C | -13.9
90 | COc1ccc(C(=O)O)cc1S(=O)(=O)Nc1cccc(C(F)(F)F)c1 | -4.34
